Results reported in PubChem BioAssay AID488969 (Vanderbilt High Throughput Screening Facility, 2010).
In all, about 110,000 compounds were measured (“z-score”: median about -0.1, highest 2% from about 2 on). The list shows a part of the results.

Each compound was assayed against Metabotropic glutamate receptor 8 (Rattus norvegicus) (UniProt P70579) (assay: mGluR8 Gi/Go-coupled signaling modulation – cell-based, rat, thallium flux, HTS, primary screen (AID 488969)). Conditions: HEK293 rat mGluR8, GIRK (G protein-gated inwardly rectifying potassium channel) thallium flux, FluoZin2; at 10 µM; stronger effect = higher value; submaximal glutamate (EC20) added with thallium.
Chain of UniProt P70579 (P70579 whole entry, looked up): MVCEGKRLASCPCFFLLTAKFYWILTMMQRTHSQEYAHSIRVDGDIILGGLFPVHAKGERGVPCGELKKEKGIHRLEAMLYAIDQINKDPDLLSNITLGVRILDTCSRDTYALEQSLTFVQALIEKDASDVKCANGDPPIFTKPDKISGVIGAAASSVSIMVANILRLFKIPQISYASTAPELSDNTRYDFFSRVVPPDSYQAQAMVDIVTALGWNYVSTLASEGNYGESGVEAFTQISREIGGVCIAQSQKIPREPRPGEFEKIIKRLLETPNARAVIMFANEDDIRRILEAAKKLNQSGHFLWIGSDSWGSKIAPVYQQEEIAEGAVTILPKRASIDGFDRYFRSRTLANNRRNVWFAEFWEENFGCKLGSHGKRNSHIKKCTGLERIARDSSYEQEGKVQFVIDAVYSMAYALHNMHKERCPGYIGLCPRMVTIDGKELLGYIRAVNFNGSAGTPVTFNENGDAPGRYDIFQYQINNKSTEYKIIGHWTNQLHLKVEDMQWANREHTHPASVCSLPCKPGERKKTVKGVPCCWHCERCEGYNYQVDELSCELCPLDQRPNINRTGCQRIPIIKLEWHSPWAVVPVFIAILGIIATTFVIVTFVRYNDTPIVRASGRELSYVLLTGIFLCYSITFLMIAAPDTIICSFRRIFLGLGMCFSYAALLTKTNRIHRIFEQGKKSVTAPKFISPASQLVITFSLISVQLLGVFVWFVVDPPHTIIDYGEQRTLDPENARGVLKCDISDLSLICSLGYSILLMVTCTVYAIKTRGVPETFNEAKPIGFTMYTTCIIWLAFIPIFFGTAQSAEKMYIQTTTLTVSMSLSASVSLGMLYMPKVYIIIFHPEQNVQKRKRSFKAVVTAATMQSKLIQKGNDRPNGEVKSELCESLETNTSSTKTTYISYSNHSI
Work on `CN1CCN(c2ccc([N+](=O)[O-])c(-n3nc(-c4ccccc4)c4ccccc4c3=O)c2)CC1` yielded a z-score of -0.953.
With `Cn1nc(C(F)(F)F)c(/C=N/OC(=O)c2ccccc2Cl)c1SCc1ccccc1Cl` the z-score was -0.323.
Compound `COc1cc(C2SCC(=O)N2CCCN(C)C)cc(OC)c1OC` (configuration not stated) has a z-score of -0.0223.
`CCCn1c(SCC(=O)NC2CCCC(C)C2C)n[nH]c1=O` (configuration not stated) gave a z-score of 0.27.
In the case of `O=C(Nc1ccc(Cl)cc1)Nc1nnc(CSCc2ccccc2)s1`, the z-score was -0.183.
`Cc1cc(C(F)(F)F)c2c(n1)sc1c(O)cc(=O)[nH]c12` gave a z-score of -1.1.
`CCCCNC(=O)c1onc(CSc2cccc(C)c2)c1C(=O)O` was tested, and the z-score was -0.302.
For `Cn1ncc(Br)c1C(=O)NCc1cccs1`, the z-score was -0.458.
Compound `COc1ccc(C(=O)Cn2c3ccccc3n3nc(CCC(=O)O)c(=O)nc23)cc1OC` has a z-score of 0.713.
`CCC1=NC(c2ccc(OC)cc2)N(O)C1(C)C` (configuration not stated) showed a z-score of -0.045.
In the case of `CC(=O)c1cccc(Nc2nc(=O)c3cccnc3s2)c1`, the z-score was 0.223.
In the case of `COC(=O)c1ccc(Cl)c(-c2ccc(/C=N/NC(=O)Nc3ccccc3)o2)c1`, the z-score was 0.0576.
In the case of `CCOc1ccc(-c2nnc(N3CCCCC3)c3ccccc23)cc1`, the z-score was -1.46.
Work on `Cc1cccc(C(OC(=O)c2ccco2)C(=O)NCc2ccccc2)n1` (configuration not stated) yielded a z-score of -0.419.
Compound `Cc1ccccc1NC(c1cccc(Cl)c1)c1nnnn1C1CCCCC1` (configuration not stated) has a z-score of -0.0701.
`CCOC(=O)c1ccc(NC(=O)CSc2nnc(C3CC3)n2CC)cc1` showed a z-score of -0.184.
With `CC(NC(=O)c1ccc(CS(=O)(=O)c2ccc(Cl)cc2)o1)c1ccc2c(c1)OCCO2` (configuration not stated) the z-score was -0.695.
Compound `N=C1S/C(=C\c2ccc(-c3cccc(Cl)c3)o2)C(=O)N1c1nccs1` has a z-score of 0.814.
For `O=C(O)C1CC=CCC1C(=O)NCCc1cccc(Cl)c1` (configuration not stated), the z-score was -0.133.
`CCOc1ccccc1C(=O)Nc1ccccc1C(N)=O` showed a z-score of -0.0706.
For `Cc1ccc(C)c(NC(=S)NNC(=O)c2ccco2)c1`, the z-score was -0.0706.
Compound `Cc1cc(C)nc(SCC(=O)OCN2C(=O)c3ccccc3C2=O)n1` has a z-score of -0.19.
`COc1cccc(NC(=O)c2cccs2)c1` was tested, and the z-score was 0.181.
`NC(=O)C(F)(F)C12OC3C4C5CC(C6C5C3C61)C42` (configuration not stated) gave a z-score of -0.285.
`CCOC(=O)Nc1cccc(OCC(=O)Nc2ccc(OC)cc2OC)c1` gave a z-score of -0.383.
With `Cc1n[nH]c(C)c1-c1nc2ccccc2[nH]1` the z-score was -1.02.
`CC(C)NC(=O)COC(=O)c1ccc(Oc2ccccc2)cc1` gave a z-score of -0.196.
Compound `O=C(COC(=O)Cc1ccc(Cl)cc1Cl)NCCC1=CCCCC1` has a z-score of -1.17.
In the case of `COc1ccc(/C=N/NC(=O)COc2ccccc2-c2ccccc2)cc1`, the z-score was 0.0734.
`Cc1nc2ccccc2cc1O` showed a z-score of -0.609.
In the case of `CCOC(=O)C(/C=C(\C#N)C(=O)OCC)=C(/N)N1CCN(c2ccc(Cl)cc2)CC1`, the z-score was -0.506.
With `CCC(=O)n1nc(-c2ccco2)nc1N` the z-score was 0.135.
